# Results from patent EP4810052A2, “HCRHR2 SELECTIVE POLYPEPTIDES” (Gubra A/S, priority 2023, dated 2026).
# At least one compound was matched to its structure with a doubt left. Starred links: 1 amine or outer side, 2 acyl side, 3 side chain; linkers in the order of their positions; H or OH if unused. Non-standard residues stand in square brackets, D forms with d. Residues, ends and D or L forms follow the SMILES beside them. Groups on a side chain read outwards from the residue. *: point of attachment. C20 diacid = O=C(O)CCCCCCCCCCCCCCCCCCC(=O)*; Pro(cis-4-F) = O=C(O)[C@@H]1C[C@H](F)CN1; Pro(4S-NH2) = N[C@@H]1CN[C@H](C(=O)O)C1; γGlu = O=C(O)[C@H](CCC(=O)[*:2])N[*:1]; NMeI = CC[C@H](C)[C@H](NC)C(=O)O; Nle = CCCC[C@H](N)C(=O)O; AEEA = NCCOCCOCC(=O)O; Aib = CC(C)(N)C(=O)O
# How the values were obtained:
# hCRHR2 = biological target: T1, hCRHR2 (Homo sapiens, UniProt Q13324); test: HTRF cAMP assay, determination of hCRHR2 potency (peptide libraries 5 conc., purified peptides 11 conc.); format: cell-based; conditions: for Potency hCRHR2 pEC50: library peptides, matched molecular pairs L vs Nle in position X^38
# T1 sequence (Q13324 1-411): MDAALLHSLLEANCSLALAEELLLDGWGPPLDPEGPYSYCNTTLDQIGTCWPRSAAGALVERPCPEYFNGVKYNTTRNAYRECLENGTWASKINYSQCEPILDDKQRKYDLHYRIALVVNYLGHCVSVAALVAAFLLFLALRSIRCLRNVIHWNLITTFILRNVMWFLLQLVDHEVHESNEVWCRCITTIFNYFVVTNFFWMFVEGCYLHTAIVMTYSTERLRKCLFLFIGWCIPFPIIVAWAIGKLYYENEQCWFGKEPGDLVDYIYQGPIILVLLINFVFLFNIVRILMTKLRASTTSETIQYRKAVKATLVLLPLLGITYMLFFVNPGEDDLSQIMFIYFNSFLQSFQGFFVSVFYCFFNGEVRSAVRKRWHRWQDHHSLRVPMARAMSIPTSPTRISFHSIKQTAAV
# Method in brief: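 CHO-K1 cells stably expressing human CRHR2, thawed from frozen stocks just before use and run in suspension; cAMP measured by competitive HTRF immunoassay (cryptate anti-cAMP, d2-cAMP). Agonist peptides tested at 5 (libraries) or 11 (purified) concentrations; EC50 from sigmoid variable-slope nonlinear regression.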
# hCRHR1 = biological target: T2, hCRHR1 (Homo sapiens, UniProt P34998); test: HTRF cAMP assay, determination of hCRHR1 potency (peptide libraries 5 conc., purified peptides 11 conc.); format: cell-based; conditions: for Potency hCRHR1 pEC50: library peptides, matched molecular pairs L vs Nle in position X^38
# T2 sequence (P34998 24-415): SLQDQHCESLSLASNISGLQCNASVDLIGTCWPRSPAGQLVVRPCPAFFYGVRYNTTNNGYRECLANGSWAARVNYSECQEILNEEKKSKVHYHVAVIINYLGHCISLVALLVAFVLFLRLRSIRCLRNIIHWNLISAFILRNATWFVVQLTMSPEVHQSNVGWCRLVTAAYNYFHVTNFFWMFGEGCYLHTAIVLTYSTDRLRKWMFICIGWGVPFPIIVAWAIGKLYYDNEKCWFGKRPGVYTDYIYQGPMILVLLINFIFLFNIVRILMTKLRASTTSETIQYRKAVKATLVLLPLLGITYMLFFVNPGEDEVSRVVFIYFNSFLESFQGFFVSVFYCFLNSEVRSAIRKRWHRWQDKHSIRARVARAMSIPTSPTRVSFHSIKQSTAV
# Method in brief: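 CHO-K1 cells stably expressing human CRHR1, thawed from frozen stocks just before use, were stimulated in suspension with agonist peptides. cAMP was measured by HTRF competitive immunoassay (cryptate anti-cAMP antibody vs d2-cAMP).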
# [1] = Table 4, library peptides having X^38 = Nle
compound,measurement,setting,value
CCCC[C@H](NC(=O)[C@@H](NC(=O)[C@H](CCC(=O)O)NC(=O)[C@H](C)NC(=O)[C@H](CC(N)=O)NC(=O)[C@@H](NC(=O)[C@H](CCCCNC(=O)COCCOCCNC(=O)COCCOCCNC(=O)CC[C@H](NC(=O)CC[C@H](NC(=O)CCCCCCCCCCCCCCCCCCC(=O)O)C(=O)O)C(=O)O)NC(=O)[C@H](C)NC(=O)[C@H](CCC(N)=O)NC(=O)[C@H](CCC(=O)O)NC(=O)[C@H](CCCNC(=N)N)NC(=O)[C@H](C)NC(=O)[C@@H](NC(=O)[C@H](CCCNC(=N)N)NC(=O)[C@H](C)NC(=O)[C@H](CCCNC(=N)N)NC(=O)[C@H](C)NC(=O)[C@H](CCC(N)=O)NC(=O)[C@H](CCC(=O)O)NC(=O)[C@H](CC(C)C)NC(=O)[C@H](CC(C)C)NC(=O)[C@@H](NC(=O)[C@H](CCC(N)=O)NC(=O)[C@H](CC(C)C)NC(=O)[C@H](CC(C)C)NC(=O)CNC(=O)[C@@H](NC(=O)[C@@H]1C[C@H](F)CN1C(=O)[C@@H](NC(=O)[C@H](CC(=O)O)NC(=O)[C@H](CC(C)C)NC(=O)[C@H](CO)NC(=O)[C@H](CC(C)C)NC(=O)[C@@H](NC(=O)[C@@H](N)[C@@H](C)CC)C(C)C)C(C)C)[C@@H](C)CC)[C@@H](C)CC)C(C)C)[C@@H](C)O)[C@@H](C)CC)C(=O)N[C@@H](C)C(=O)N[C@@H](CCC(=O)O)C(=O)N[C@H](C(N)=O)C(C)C [compound 107] (H-IVLSLDV[Pro(cis-4-F)]IGLLQILLEQARARVAREQAK([AEEA-AEEA-γGlu-γGlu-C20 diacid])TNAEI[Nle]AEV-NH2; N-terminus assumed),Potency hCRHR2 pEC50,hCRHR2,9.2
same,Potency hCRHR1 pEC50,hCRHR1,3.6
CCCC[C@H](NC(=O)[C@@H](NC(=O)[C@H](CCC(=O)O)NC(=O)C(C)(C)NC(=O)[C@H](CC(N)=O)NC(=O)[C@@H](NC(=O)[C@H](CCCCNC(=O)COCCOCCNC(=O)COCCOCCNC(=O)CC[C@H](NC(=O)CC[C@H](NC(=O)CCCCCCCCCCCCCCCCCCC(=O)O)C(=O)O)C(=O)O)NC(=O)[C@H](C)NC(=O)[C@H](CCC(N)=O)NC(=O)[C@H](CCC(=O)O)NC(=O)[C@H](CCCNC(=N)N)NC(=O)[C@H](C)NC(=O)[C@H](C)NC(=O)[C@H](CCCNC(=N)N)NC(=O)[C@H](C)NC(=O)[C@H](CCCNC(=N)N)NC(=O)[C@H](C)NC(=O)[C@H](CCC(N)=O)NC(=O)[C@H](CCC(=O)O)NC(=O)[C@H](CC(C)C)NC(=O)[C@H](CC(C)C)NC(=O)[C@@H](NC(=O)[C@H](CCC(N)=O)NC(=O)[C@H](CC(C)C)NC(=O)[C@H](CC(C)C)NC(=O)CNC(=O)[C@@H](NC(=O)[C@@H]1CCCN1C(=O)[C@@H](NC(=O)[C@H](CC(=O)O)NC(=O)[C@H](CC(C)C)NC(=O)[C@H](CO)NC(=O)[C@H](CC(C)C)NC(=O)[C@@H](NC(=O)[C@@H](NC)[C@@H](C)CC)C(C)C)C(C)C)[C@@H](C)CC)[C@@H](C)CC)[C@@H](C)O)[C@@H](C)CC)C(=O)N[C@@H](C)C(=O)N[C@@H](CCC(=O)O)C(=O)N[C@H](C(N)=O)[C@@H](C)CC [compound 140] (H-[NMeI]VLSLDVPIGLLQILLEQARARAAREQAK([AEEA-AEEA-γGlu-γGlu-C20 diacid])TN[Aib]EI[Nle]AEI-NH2),hCRHR2 pEC50,hCRHR2; [1],11.9
same,hCRHR1 pEC50,hCRHR1; [1],6.4
CCCC[C@H](NC(=O)[C@@H](NC(=O)[C@H](CCC(=O)O)NC(=O)[C@H](C)NC(=O)[C@H](CC(N)=O)NC(=O)[C@@H](NC(=O)[C@H](CCCCNC(=O)COCCOCCNC(=O)COCCOCCNC(=O)CC[C@H](NC(=O)CC[C@H](NC(=O)CCCCCCCCCCCCCCCCCCC(=O)O)C(=O)O)C(=O)O)NC(=O)[C@H](C)NC(=O)[C@H](CCC(N)=O)NC(=O)[C@H](CCC(=O)O)NC(=O)[C@H](CCCNC(=N)N)NC(=O)[C@H](C)NC(=O)[C@H](CC(N)=O)NC(=O)[C@H](CCCNC(=N)N)NC(=O)[C@H](C)NC(=O)[C@H](CCCNC(=N)N)NC(=O)[C@H](C)NC(=O)[C@H](CCC(N)=O)NC(=O)[C@H](CCC(=O)O)NC(=O)[C@H](CC(C)C)NC(=O)[C@H](CC(C)C)NC(=O)[C@@H](NC(=O)[C@H](CCC(N)=O)NC(=O)[C@H](CC(C)C)NC(=O)[C@H](CC(C)C)NC(=O)CNC(=O)[C@@H](NC(=O)[C@@H]1C[C@H](F)CN1C(=O)[C@@H](NC(=O)[C@H](CC(=O)O)NC(=O)[C@H](CC(C)C)NC(=O)[C@H](CO)NC(=O)[C@H](CC(C)C)NC(=O)[C@@H](NC(=O)[C@@H](N)[C@@H](C)CC)C(C)C)C(C)C)[C@@H](C)CC)[C@@H](C)CC)[C@@H](C)O)[C@@H](C)CC)C(=O)N[C@@H](C)C(=O)N[C@@H](CCC(=O)O)C(=O)N[C@H](C(N)=O)C(C)C [compound 97] (H-IVLSLDV[Pro(cis-4-F)]IGLLQILLEQARARNAREQAK([AEEA-AEEA-γGlu-γGlu-C20 diacid])TNAEI[Nle]AEV-NH2; N-terminus assumed),Potency hCRHR2 pEC50,hCRHR2,9.2
same,Potency hCRHR1 pEC50,hCRHR1,8.6
CC[C@H](C)[C@H](N)C(=O)N[C@H](C(=O)N[C@@H](CC(C)C)C(=O)N[C@@H](CO)C(=O)N[C@@H](CC(C)C)C(=O)N[C@@H](CC(=O)O)C(=O)N[C@H](C(=O)N1C[C@@H](N)C[C@H]1C(=O)N[C@H](C(=O)NCC(=O)N[C@@H](CC(C)C)C(=O)N[C@@H](CC(C)C)C(=O)N[C@@H](CCC(N)=O)C(=O)N[C@H](C(=O)N[C@@H](CC(C)C)C(=O)N[C@@H](CC(C)C)C(=O)N[C@@H](CCC(=O)O)C(=O)N[C@@H](CCC(N)=O)C(=O)N[C@@H](C)C(=O)N[C@@H](CCCNC(=N)N)C(=O)N[C@@H](C)C(=O)N[C@@H](CCCNC(=N)N)C(=O)N[C@H](C(=O)N[C@@H](C)C(=O)N[C@@H](CCCNC(=N)N)C(=O)N[C@@H](CCC(=O)O)C(=O)N[C@@H](CCC(N)=O)C(=O)N[C@@H](C)C(=O)N[C@@H](CCCCNC(=O)COCCOCCNC(=O)COCCOCCNC(=O)CC[C@H](NC(=O)CC[C@H](NC(=O)CCCCCCCCCCCCCCCCCCC(=O)O)C(=O)O)C(=O)O)C(=O)N[C@H](C(=O)N[C@@H](CC(N)=O)C(=O)N[C@@H](C)C(=O)N[C@@H](CCC(=O)O)C(=O)N[C@H](C(=O)N[C@@H](CC(C)C)C(=O)N[C@@H](C)C(=O)N[C@@H](CCC(=O)O)C(=O)N[C@H](C(N)=O)C(C)C)[C@@H](C)CC)[C@@H](C)O)[C@@H](C)CC)[C@@H](C)CC)[C@@H](C)CC)C(C)C)C(C)C [compound 104] (H-IVLSLDV[Pro(4S-NH2)]IGLLQILLEQARARIAREQAK([AEEA-AEEA-γGlu-γGlu-C20 diacid])TNAEILAEV-NH2; N-terminus assumed),Potency hCRHR2 pEC50,hCRHR2,9.0
same,Potency hCRHR1 pEC50,hCRHR1,8.8
CCCC[C@H](NC(=O)[C@@H](NC(=O)[C@H](CCC(=O)O)NC(=O)[C@H](C)NC(=O)[C@H](CC(N)=O)NC(=O)[C@@H](NC(=O)[C@H](CCCCNC(=O)COCCOCCNC(=O)COCCOCCNC(=O)CC[C@H](NC(=O)CC[C@H](NC(=O)CCCCCCCCCCCCCCCCCCC(=O)O)C(=O)O)C(=O)O)NC(=O)[C@H](C)NC(=O)[C@H](CCC(N)=O)NC(=O)[C@H](CCC(=O)O)NC(=O)[C@H](CCCNC(=N)N)NC(=O)[C@H](C)NC(=O)[C@@H](NC(=O)[C@H](CCCNC(=N)N)NC(=O)[C@H](C)NC(=O)[C@H](CCCNC(=N)N)NC(=O)[C@H](C)NC(=O)[C@H](CCC(N)=O)NC(=O)[C@H](CO)NC(=O)[C@H](CC(C)C)NC(=O)[C@H](CC(C)C)NC(=O)[C@@H](NC(=O)[C@H](CCC(N)=O)NC(=O)[C@H](CC(C)C)NC(=O)[C@H](CC(C)C)NC(=O)CNC(=O)[C@@H](NC(=O)[C@@H]1CCCN1C(=O)[C@@H](NC(=O)[C@H](CC(=O)O)NC(=O)[C@H](CC(C)C)NC(=O)[C@H](CO)NC(=O)[C@H](CC(C)C)NC(=O)[C@@H](NC(=O)[C@@H](N)[C@@H](C)CC)C(C)C)C(C)C)[C@@H](C)CC)[C@@H](C)CC)[C@@H](C)CC)[C@@H](C)O)[C@@H](C)CC)C(=O)N[C@@H](C)C(=O)N[C@@H](CCC(=O)O)C(=O)N[C@H](C(N)=O)C(C)C [compound 95] (H-IVLSLDVPIGLLQILLSQARARIAREQAK([AEEA-AEEA-γGlu-γGlu-C20 diacid])TNAEI[Nle]AEV-NH2; N-terminus assumed),Potency hCRHR2 pEC50,hCRHR2,9.3
same,Potency hCRHR1 pEC50,hCRHR1,3.8
